Laboratory results taken from ChEMBL document CHEMBL4888484, “Replenishing the malaria drug discovery pipeline: Screening and hit evaluation of the MMV Hit Generation Library 1 (HGL1) against asexual blood stage Plasmodium falciparum ,using a nano luciferase reporter read-out” (2022).
In all, about 150,000 compounds went through this assay and about 540 (0.36%) showed an effect of 50% or more. Some of the results follow.

Tested on: Plasmodium falciparum
Test: Primary screen in NF54 nanoGlo assay, in single point, at 2uM, 72h; a lower Z score goes with more inhibition
Assay type: functional, Erythrocyte
Details: timepoint 72 hour

SMILES	% Inhibition [%]	Z score
COc1ccc(-c2nnc([C@H](C)N(C)Cc3ccccc3N3CCOCC3)o2)cc1	-1	0.13
CC(C)NC(=O)CCc1cc2n(n1)CCN(C(=O)[C@H]1CCCO1)C2	9	-1.19
Cc1ccc2c(c1)Oc1cc(Cl)c(S(=O)(=O)N3CC(C)OC(C)C3)cc1C(=O)N2 (stereo not drawn)	-13	1.91
O=C([C@H]1CC12CCN(Cc1ccc(F)cc1F)CC2)N1CCN(Cc2ccccc2)CC1	-2	0.23
COc1cc(NC[C@H]2CN(C)CCN2C)nc(N)n1	2	-0.46
CN(CC(=O)Nc1cc(S(=O)(=O)N2CCOCC2)ccc1N1CCOCC1)Cc1cccs1	-41	4.81
O=C1NCCN1C(=O)N1CCc2sc(Cl)cc2C1	6	-0.67
Cn1nccc1CNS(=O)(=O)C1CCCCCC1	-9	1.17
Cc1ccc(-c2nc(CN3CCC[C@H](c4ccn(CCO)n4)C3)c(C)o2)cc1	9	-1.16
Cc1ccc2c(c1)[C@@H](NC(=O)NCCc1nnc(C)s1)CO2	-13	1.28
CCOC1CC(Cc2nc(-c3cccc(NC(=O)C(C)C)c3)no2)C1 (stereo not drawn)	0	0.01
O=C(Cn1cccn1)Nc1nc(C2CC2)cs1	0	-0.07
Cc1cc(N2CCNC(=O)C2)n2nc(C)cc2n1	5	-0.99
Cc1cccc(C)c1OCC(O)CN1CCCC1c1cnn(C)c1 (stereo not drawn)	-11	1.57
Cc1ncncc1C(=O)NCc1cc(Cl)cc2c(C)c(-c3ccccc3)[nH]c12	1	-0.17
CCN1C(=O)c2ccccc2N2C(=O)CC[C@@]12C(=O)Nc1cccc(OC)c1	92	-11.06
COCCc1ccc(S(=O)(=O)NC2(c3ccc(Br)cc3)CCC2)cc1	-6	0.74
CCn1ncc2cc(C(=O)Nc3nc4ccc(F)cc4[nH]3)c(C)nc21	-7	0.68
O=C1N[C@@H](c2cccs2)Nc2ncccc21	1	-0.08
Cc1ccc([C@H]2CN(C(=O)c3ccc4nc(C)c(C)nc4c3)C[C@@H]2N(C)C)cc1	-3	0.55
CC1CC2(C)Oc3ccccc3C3OCC1(COC(=O)NC1CCCCC1)[C@@H](C)C32 (stereo partly drawn)	-8	1.03
COC[C@H]1CN(C2CCC2)CC12CCN(C(=O)Cc1cccc(F)c1)CC2	-5	0.62
Cc1noc(C)c1C(C)C(=O)NCC(C)COCc1ccccc1 (stereo not drawn)	-11	1.2
CCn1cnc2c(N3CCC(NCc4ccccc4)CC3)ncnc21	-6	0.89
Cc1cccc2c1CCN2C(=O)c1nc(=O)[nH][nH]1	15	-1.78
CN(C)C(=O)CN1CC[C@H](NC(=O)c2cc(-c3ccccc3)n[nH]2)[C@@H](O)C1	1	-0.12
C=CCC1(CC=C)CCCN1C(=O)CC(=O)Nc1ccc(C)cc1C	7	-0.94

SMILES	% Inhibition [%]	Z score
Cc1ccc(NC(=O)N2CC[C@]3(C2)c2nc[nH]c2CCN3C)c(C)c1	-12	2.06
COC1CC(C(=O)NCC2(OC)CCC(C(F)F)CC2)C1 (stereo not drawn)	15	-1.94
O=S(=O)(c1ccccc1)N1CCC(O)(c2ccccc2)C2CCCCC21 (stereo not drawn)	-6	0.88
Cc1ccc(NC[C@H]2CCN(Cc3cnc(C)s3)C2)nc1	-4	0.65
Cc1cnn(CC2CCCN2C(C)C(=O)NCC2CCCO2)c1 (stereo not drawn)	-3	0.24
c1ccc2c(-c3nc([C@H]4CCOC4)no3)n[nH]c2c1	-9	1.8
Cc1nc(CC(=O)NS(=O)(=O)c2cccc(F)c2F)c(C)s1	-8	0.79
O=C(N[C@H]1CCn2nccc2C1)c1cc2ccccc2o1	-16	2.48
COc1cc2c(cc1Cn1cc([C@H]3CCOC3)nn1)CCC2	-10	1.37
CCOc1oc(C)nc1C(=O)NCc1nccs1	-2	0.2
CCN(CC)C(=O)c1csc(-c2ccc(OCc3ccccc3Cl)c(OC)c2)n1	-9	1.19
COCCN(CCOC)C(=O)Nc1ccc(Cl)cc1	-4	0.6
O=C(Cc1cn2c(n1)CCCC2)Nc1cc(C(F)(F)F)n[nH]1	4	-0.54
O=C(CC1CCCCC1)NC[C@@H](CO)Cc1ccc(F)cc1	-7	1.08
COc1ccc(C)nc1-c1cccc(OC)c1C(=O)N(C(C)C)C(C)C	-8	0.79
O=C(Nc1ccc2c(c1)C(=O)N1CCC[C@H]1C(O)=N2)c1ccccc1F	-21	2.8
Clc1cnccc1CN1CCO[C@H](c2cccnc2)C1	-11	1.5
CC(C)c1ccc(-c2nc(N3CCN(c4ccccc4)CC3)nc3nn(C)c(N)c23)cc1	-15	1.9
CC(=O)N1C[C@H]2CC[C@@H](C1)N(Cc1ccc(F)cc1Cl)C2	-20	1.82
O=C(c1cnc2sc3c(n2c1=O)CCC3)N1CCCCC1	-8	1.12
C=CCNS(=O)(=O)c1cc(F)c(Br)cc1OC	1	-0.06
COc1cc(OC)c(S(=O)(=O)Nc2ccccc2)cc1S(=O)(=O)Nc1ccccc1	-9	1.3
Cc1ncccc1NC(=O)C1CC(F)(F)C1	-11	1.34
O=C(Nc1cccc2[nH]ccc12)N(CCC(F)(F)F)C1CCCCC1	-13	1.88
Cc1csc(NC(=O)N(CC2CCCO2)C2CCS(=O)(=O)C2)n1 (stereo not drawn)	2	-0.27
CCN1C(=O)c2ccccc2N[C@@H]1c1cc2ccccc2nc1O	9	-1.68
Cc1nc(N2CCCC2)ncc1C(=O)N1CCN(c2ccccc2F)CC1	-14	2.08
